From PubChem BioAssay AID1508624 (National Center for Advancing Translational Sciences (NCATS), 2021)
Among all 48,000 compounds or so, about 120 (0.25%) were called active. Roughly 4% stayed inconclusive and do not appear here. Calls come from the whole dose curve; as a rule, active = well fitted activation curve with a large enough effect; inconclusive = small, poorly fitted or top-dose-only effect, or another doubt; inactive = no such curve, though single readings can be large or run the other way. The list shows a part of the results.

Experiment: Primary qHTS for Identification of Small Molecule Activators of Huntingtin-Antisense Promoter Activity; note: nearly all actives have a fitted effect of over 55% in size
Conditions: HEK293 HTT-AS promoter firefly luciferase reporter, 24 h; series mostly up to 57.5 µM; activity change, positive = activation: at the top concentration
Summary of the method: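 HEK293 Fluc reporter, 2,500 cells/well, 24 h pre-culture; cpds up to 57.5 uM final, 24 h 37 degrees C; Dual-Glo, 10 min RT; normalized vehicle = 0%, zero RLU = -100%.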

Activity change, positive = activation, inactive:
COc1cc(NC(=O)c2nn(-c3ccc(F)cc3)c(=O)n(C)c2=O)cc(OC)c1OC 2.8%, CCn1c(C(=O)N2CCC(C(=O)NCCCOC)CC2)cc2sccc21 -5.11%, Cc1cc(C)c(/C=C/c2onc(C)c2S(=O)(=O)N2CCC(C(=O)Nc3ccc(Cl)cc3C)CC2)c(C)c1 26.2%, O=C(COCc1cc(-c2cccs2)on1)NCc1cccc(Cl)c1 -8.96%, CC(C(O)c1ccc(O)cc1)N1CCC(Cc2ccccc2)CC1 (centres undefined) -7.94%, Cc1cn(S(=O)(=O)c2ccc(F)c(Cl)c2)cn1 -6.1%, COc1ccc(NC(=O)CSc2nc3c(c(=O)[nH]2)CCC3)cc1 -4.25%, CCC1CCc2nc3sc(C(=O)Nc4ccc(F)c(F)c4)c(N)c3cc2C1 (centres undefined) 14.2%, CCOC(=O)c1c(C)c(C(=O)NCc2ccc(Cl)cc2)c(C)n1CC -24.8%, CC(C)c1ccccc1Oc1c(C(F)(F)F)oc2c(CN3CCN(C)CC3)c(O)ccc2c1=O 0%, Cn1c(-c2ccc(S(=O)(=O)N3CCCC3)cc2)csc1=Nc1ccc(Cl)c(Cl)c1 -74%, CCOc1ccccc1Nc1sc(C(=O)c2ccc(Cl)cc2)c(N)c1C(=O)NCCc1ccccc1 0.748%, O=C(Cn1c(=O)n(CCc2ccccc2)c(=O)c2c3c(sc21)CCCC3)Nc1ccc(F)c(F)c1 -7.54%, Brc1ccc(CN2CCc3nc(N4CCN(c5ncccn5)CC4)ncc3C2)cc1 -28.9%, CCCc1nnc(NC(=O)Cc2coc3ccc(C)cc23)s1 -10.3%, Cc1ccccc1NC(=O)CSc1nc2ccccc2c2nc(CCn3c(C)nc4ccccc43)nn12 -4.94%, COc1ccc(NCc2cc3ccc(OC)cc3n(CC(=O)Nc3cccc(OC)c3)c2=O)cc1 34.1%, Cc1ccc(CNC(=O)c2cn(C)c3ccc(S(=O)(=O)N4CCOCC4)cc3c2=O)cc1 15.4% [at 11.5 µM, percent change from vehicle, -100% = no light], CCOc1ccc(-c2nc(CNC(=O)Nc3ccccc3)c(C)o2)cc1 2.47%, COc1ccccc1N1CCN(C(=O)c2cc3c(=O)oc4ccc(C)cc4c3s2)CC1 -15.7%, COc1ccccc1CNC(=O)CN1C(=O)c2cccnc2Oc2ccccc21 19.5%, Cc1ccc(-c2noc(CSc3nnc(C)n3-c3ccc(C)cc3)n2)cc1 -16.4%, COc1ccc(OCCSc2nc3ccccc3n2CC(=O)N2CCOCC2)cc1 -11.5%, COc1ccc(NC(=O)CCCc2nnc3n(CCC(C)C)c(=O)c4sccc4n23)cc1Cl -21.1%, COc1ccc(/C=C/c2onc(C)c2S(=O)(=O)N2CCC(C(=O)N3CCCCC3)CC2)cc1 -31%, CCOc1ccc(CNC(=O)C2CCN(C(=O)c3sccc3-n3cccc3)CC2)cc1 -17.1%, Cc1ccc(-n2c(SCCC(C)C)nc3sc4c(c3c2=O)CC(C)(C)OC4)cc1 -6.18%, COc1ccc(-c2cc(C(C)=O)c(C)n2CCC(=O)NC2CCCCC2)cc1 -17.4%, CCOC(=O)c1c(C)[nH]c(C)c1S(=O)(=O)NCC(=O)N1CCN(c2cc(Cl)ccc2C)CC1 -26.4%, CC(Oc1ccccc1)C(=O)N1CCN(Cc2cc(=O)n3nc(-c4ccccc4Cl)sc3n2)CC1 (centres undefined) -13.3%, O=C(CCSCc1ccccc1Cl)N1CCN(c2ccc(F)cc2)CC1 -16%, CCc1ccc(C(=O)c2cn(CC(=O)Nc3ccc4c(c3)OCCO4)c3ccc(C)cc3c2=O)cc1 -19.9%, CC(=O)c1ccc(NC(=O)COc2ccccc2-c2nc(-c3ccccc3)no2)cc1 -6.93%, COCc1cc(C)nc2sc3c(c12)NC(c1ccccc1C(=O)O)N(c1ccc(OC)cc1)C3=O (centres undefined) 2.08%, O=c1c2c3c(sc2n(Cc2cc(=O)n4ccccc4n2)c(=O)n1-c1ccccc1)CCC3 -0.0154%, Cc1ccc(C)c(NC(=O)c2nnn(CC(=O)Nc3cccc(C)c3C)c2N)c1 -14.3%, O=c1cc(CN2CCN(S(=O)(=O)c3ccccc3)CC2)nc2sc(-c3ccccc3Cl)nn12 -6.22%, Cc1ccc(NC(=O)C(Cc2ccccc2)NS(=O)(=O)c2cccs2)cc1Cl (centres undefined) -0.313%, CCCN(C(=O)c1sc2nc3n(c(=O)c2c1C)CCCC3)c1ccccc1C -31.5%, CC(C)N(CC[C@H](c1ccccc1)c1cc(CO)ccc1O)C(C)C -8.04%, Cc1ccc2c(c1)CC(C)N2S(=O)(=O)c1nnc(NC(=O)C(C)C)s1 (centres undefined) -23.3%, Cc1cccc(NC(=O)C2CCN(S(=O)(=O)c3ccc4c(c3)CCCC(=O)N4)CC2)c1 -10.9%, CCCNC(=O)C1CCC(Cn2c(=O)c3sccc3n(CC(=O)Nc3ccccc3C)c2=O)CC1 (centres undefined) -13%, CC(NC(=O)c1ccc2nc(Cc3ccccc3)oc2c1)c1ccccc1 (centres undefined) -3.59%, Cc1cc(=O)n(CC(=O)Nc2cccc([N+](=O)[O-])c2)c(-n2nc(C)cc2C)n1 -8.48%, CCc1noc(-c2ccc(N(C)Cc3ccc(OC)cc3)c([N+](=O)[O-])c2)n1 -35.1%, CCOc1ccc(CCNC(=O)c2sc3ncccc3c2-n2c(C)ccc2C)cc1 -26.6%, CCc1ccc(Nc2cc(C(=O)NCCCN(C)c3ccccc3)c3ccccc3n2)cc1 2.46%, COc1ccc(OC)c(NC(=O)N2CCC(N3CCN(Cc4ccc(F)cc4)C(=O)C3=O)CC2)c1 -7.57%, COC(=O)c1c(NC(=O)c2cc3nc(-c4ccc(Br)cc4)cc(C(F)(F)F)n3n2)sc2c1CCCC2 8.01%, COc1ccc(NC(=O)Cn2cc(C(=O)C3CCCCC3)c3ccccc32)cc1 -17.3%, Cc1c(Cl)cccc1NC(=O)C(=O)NCC(c1cccnc1)N1CCN(c2ccccc2)CC1 (centres undefined) -26.6%, CC(C)Oc1ccc(C(=O)N2CC(=O)Nc3ccc(F)cc3C2c2ccc(F)cc2)cc1 (centres undefined) -12.4%, CCOc1ccc(CNC(=O)CN2C(=O)C3CCCCN3c3ccc(C(=O)N4CCCC4)cc32)cc1 (centres undefined) -7.42%, COc1ccccc1CNC(=O)c1cc2cc(C)ccc2n1C -31.7%, CN(C)c1cccc(C(=O)N2CCC(c3ccncc3)CC2)c1 -51.6%, COc1cc(CNc2ccc3[nH]c(=O)[nH]c3c2)cc(Br)c1OCc1ccc(F)cc1 -35.3%, COCCNc1ncnc2onc(-c3ccc(F)cc3)c12 -7.15%, O=C(O)CCc1ccc(-c2cccs2)n1CC(=O)Nc1ccccc1C(F)(F)F -8.96%, O=C(CSc1nc(-c2ccccc2)nc2c1CCCC2)c1ccc(Cl)cc1 -1.67%, CN1CCN2c3ncccc3Cc3ccccc3C2C1 (centres undefined) -10.7%, COc1ccc(Cn2ccc3nc(C)c(C(=O)N4CCN(c5cc(C)ccc5C)CC4)cc3c2=O)cc1 -26.2%, CCc1cccc(C)c1NC(=O)C(CC)n1ncn2c(cc3cc(C)ccc32)c1=O (centres undefined) -3.57%, CCOc1ccc(CNC(=O)c2cnc3sc(N4CCCCCC4)nn3c2=O)cc1OC 2.39%, Cc1ccc(S(=O)(=O)c2nc(S(=O)(=O)c3ccc(C)cc3)c(NC(C)C)s2)cc1 -1.85%, Cc1ccc(C)c(NC(=O)Cn2c(=O)n(Cc3ccc4c(c3)OCO4)c(=O)c3ccc(C(=O)NC4CCCCC4)cc32)c1 -13.6%, CCN(CC)c1ccc(NC(=O)c2cc3c(=O)n4cccc(C)c4nc3n2C)c(C)c1 -1.76%, Cc1cc(S(=O)(=O)NCC(c2ccc(N(C)C)cc2)N2CCOCC2)ccc1F (centres undefined) -12.5%, O=C(CSC1=Nc2ccccc2N=C(c2ccc(F)cc2)C1)NCc1ccc(Cl)cc1 -29.6%, CCn1nc(C)c2c(-c3ccccc3)cc(=O)n(C(C)C(=O)NCc3ccc(C)cc3)c21 (centres undefined) -30.1%, CN(C(=O)CN(CCO)CC(=O)N(C)C(C)(C)Cc1ccccc1)C(C)(C)Cc1ccccc1 -25.2%, CCCCCNC(=O)CCn1c(=O)[nH]c2ccccc2c1=O -12%, COc1ccc(/C=C/c2nc3ccccc3c(=O)n2-c2cccc(C(F)(F)F)c2)cc1 -19%, Cc1ccc(CN(C(=O)COc2ccc(Cl)cc2Cl)C2CCS(=O)(=O)C2)o1 (centres undefined) -16.7%, Cc1[nH]c(=O)[nH]c(=O)c1S(=O)(=O)N1CCN(c2cccc(Cl)c2)CC1 -3.67%, CN(C)S(=O)(=O)c1ccc2c(c1)C(=Cc1cc3c([nH]1)CCCC3)C(=O)N2 -37%, COc1ccc(Cl)cc1NC(=O)N1CCC(CN2CCCCCC2)CC1 -2.14%, CCc1ccccc1NC(=O)C(C)n1nc(-c2ccc(C)c(C)c2)ccc1=O (centres undefined) -23.2%, Cc1cccc(Cn2cc(C(=O)Nc3ccc(S(N)(=O)=O)cc3)ccc2=O)c1 -3.89%, COc1ccc(CNC(=O)CN2C(=O)CSc3ccc(S(=O)(=O)N4CCCC4)cc32)cc1 -8.21%, CCCCNC(=O)CN1C(=O)COc2ccc(S(=O)(=O)N3CCCC3)cc21 -4.2%, CSc1cccc(NC(=O)Cn2cnc(S(=O)(=O)N3CCCC3)c2)c1 -8.73%, CC1=C(C(=O)OCC2CCCCC2)C(c2ccc(Cl)cc2Cl)CC(=O)N1 (centres undefined) -33.4%, O=C(Nc1ccccc1OCc1cc(=O)n2ccccc2n1)c1ccccc1F 4.12%, CCCn1c2ccccc2c2cnn(CC(=O)NCc3cc(OC)ccc3OC)c(=O)c21 -8.79%, COc1ccc(CNC(=O)C(=O)NCC(c2ccco2)S(=O)(=O)c2ccc(C)cc2)cc1 (centres undefined) -19.5%, COc1cc2nc(Nc3ccc(F)cc3)nc(N)c2cc1OC -1.18%, CCOC(=O)c1cccc(NC(=O)C(Cc2ccccc2)NS(=O)(=O)c2cccc3nsnc23)c1 (centres undefined) -32.5%, COc1ccc(NC(=O)CN(C)S(=O)(=O)c2cccc3nsnc23)cc1 8.83%, COC(=O)N/N=C/c1c[n+]([O-])c2ccccc2[n+]1[O-] -1.74%, COc1ccc(N(C(=O)COc2ccccc2OC)S(=O)(=O)c2ccc(Cl)cc2)cc1 -30%, Cc1noc(C)c1S(=O)(=O)N1CCCC(C(=O)Nc2ccc(C(C)C)cc2)C1 (centres undefined) -4.42%, CCc1ccccc1NC(=O)Nc1cc(C(=O)NCc2ccc(OC)cc2)ccc1N1CCCC1 2.74%, COc1cc(NS(=O)(=O)c2ccc(N)cc2)ncn1 -8.28%
